Experiments:
[1] = system: Th2 cell population in human PBMC; experiment: Th2 cell population in human PBMC culture (flow cytometry); type: cell-based; set-up: key: −: no inhibition; +: weak; ++: moderate; +++: strong inhibition; settings: IL-2 (10 unit/mL) and three alarmins (10 ng/ml), 5 days
Excerpt: (§1) While alarmins are known to work in concert to enhance ILC2 and Th2 cell functions such as increase in cell population, steroids such as Dexamethasone (Dex) can negate these effects, resulting in the mitigation of type 2 immune responses [Jia, Yi et al. American Journal Of Respiratory Cell And Molecular Biology, vol. 55, 5 (2016): 675-683]. ILC2 and Th2 cell population can be determined by flow cytometry (BD FACSVerse) following standard procedures known to those skilled in the art.

IL-33 [2] = molecular target: T1, IL-33 (Homo sapiens, UniProt O95760); experiment: ELISA, antigen binding specificity of bsBp (IL-33); set-up: key: −: no binding; +: weak; ++: moderate; +++: strong binding; N/A refers to no binding affinity; settings: 33.5 nM; antigen coated at 2 μg/mL
T1 construct: purchased R&D systems
T1 sequence (O95760 95-270): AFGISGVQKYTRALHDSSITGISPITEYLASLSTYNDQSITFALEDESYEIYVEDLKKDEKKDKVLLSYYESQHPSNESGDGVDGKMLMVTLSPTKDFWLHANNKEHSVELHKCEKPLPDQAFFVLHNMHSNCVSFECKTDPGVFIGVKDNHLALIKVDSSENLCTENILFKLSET
Description: (§2) Binding specificities of bsBp were evaluated by standard ELISA assays. Briefly, ELISA strips were coated with the respective target antigens, including IL17RB, IL-33, or TSLP (R&D systems) at a final concentration of 2 μg/mL. Bispecific antibodies were added at 33.5 nM to ELISA strips coated with the desired antigen. After incubation under room temperature for 2 hours, ELISA strips were washed five times with PBS. […] No result is provided for SM17-human TSLPR as the yield was too low to be detected.

Human PBMCs = experiment: CCL8 and IFNγ release from human PBMC incubated with IL-12 and IL-33; type: cell-based; set-up: key to Intensity of specific cytokine inhibition, IFNγ / Intensity of specific cytokine inhibition, CCL-8: −: no binding; +: weak; ++: moderate; +++: strong binding; N/A refers to no binding affinity; settings: 5 μg/ml; human PBMC
Description: Human PBMCs (4×10^5 per group, Ixcells) were incubated with IL-2 (10 unit/mL, PeproTech) and various alarmin/alarmin combinations to mimic the pro-inflammatory cytokines release during allergic diseases. For IL-5 and IL-13 releases, PBMCs were incubated with IL-2 and three alarmins (all 10 ng/ml) for three days. For CCL17 release, PBMC was incubated with TSLP (10 ng/ml) for 1 day. For CCL8 and IFNγ releases, PBMCs were incubated with IL-12 (10 ng/ml, Sino Biological) and IL-33 (10 ng/ml) for 1 day. Cells were pretreated with SM17 (5 μg/ml) or IgG4 isotype control (5 μg/ml) for an hour before the addition of cytokines.
Supernatants were collected and the cytokine concentration were measured by ELISA kits (R&D systems). These established assays were used to test the potency of and SM17 and bsBps. […] Results were expressed in absolute amount in pg/ml.
SM17, three different SM17-anti-IL33 bsBps and three different SM17-anti-TSLP bsBps (all at 5 μg/ml) were added to human PBMC cultures under conditions that shall induce the release of IFNγ, CCL8, CCL17 and IL-5 as described in Example 11 above. The levels of different cytokines and chemotactic factors in supernatant obtained in induced PBMC were evaluated using standard ELISA methods.

IL-33 [3] = molecular target: T1, IL-33; experiment: Bio-Layer Interferometry (Octet), binding kinetics of bsBp to human IL-33; settings: for Ka: bsBp or SM17 immobilized at 20 μg/mL
Description: The binding affinity of bsBp to the targeted alarmins was determined using a bio-Layer Interferometry analysis (Octet ReD96 system, Sartorius). bsBp or SM17 (20 μg/mL) was immobilized on biosensors via binding to anti-human Fab CH1 region; serially diluted human IL33 and TSLP (158.7 nM, 79.4 nM, 39.7 nM) (R&D systems) were added to plot the association and dissociation curve according to the manufacturer's specification. Biosensors immobilized with irrelevant antibody (SM03, anti-human CD22 chimeric IgG1 antibody, SinoMab BioScience Limited, 20 μg/mL) were used as control reference.

[4] = system: ILC2 population in human PBMC; experiment: ILC2 cell population in human PBMC culture (flow cytometry); type: cell-based; set-up: key: −: no inhibition; +: weak; ++: moderate; +++: strong inhibition; settings: IL-2 (10 unit/mL) and three alarmins (10 ng/ml), 5 days
Excerpt: as §1

IL-17RB = molecular target: T2, IL-17RB (Homo sapiens, UniProt Q9NRM6); experiment: ELISA, antigen binding specificity of bsBp (IL-17RB); set-up: key: −: no binding; +: weak; ++: moderate; +++: strong binding; N/A refers to no binding affinity; settings: 33.5 nM; antigen coated at 2 μg/mL
T2 construct: purchased R&D systems
T2 sequence (Q9NRM6 18-502): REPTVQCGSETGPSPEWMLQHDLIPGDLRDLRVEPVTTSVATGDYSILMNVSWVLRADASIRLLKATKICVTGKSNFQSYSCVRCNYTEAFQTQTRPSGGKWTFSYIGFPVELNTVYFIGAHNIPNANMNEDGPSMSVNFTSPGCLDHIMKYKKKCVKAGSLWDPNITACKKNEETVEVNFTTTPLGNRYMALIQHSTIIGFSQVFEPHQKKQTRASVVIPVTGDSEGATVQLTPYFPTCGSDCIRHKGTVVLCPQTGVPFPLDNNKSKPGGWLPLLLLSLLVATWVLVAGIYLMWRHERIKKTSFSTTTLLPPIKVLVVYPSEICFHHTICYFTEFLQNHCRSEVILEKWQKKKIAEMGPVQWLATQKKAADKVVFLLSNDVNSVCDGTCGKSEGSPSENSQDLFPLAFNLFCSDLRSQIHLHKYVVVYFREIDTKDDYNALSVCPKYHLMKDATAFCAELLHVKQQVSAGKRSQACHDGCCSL
Description: as §2

TSLP = molecular target: T3, TSLP (Homo sapiens, UniProt Q969D9); experiment: ELISA, antigen binding specificity of bsBp (TSLP); set-up: key: −: no binding; +: weak; ++: moderate; +++: strong binding; N/A refers to no binding affinity; settings: 33.5 nM; antigen coated at 2 μg/mL
T3 construct: purchased R&D systems
Description: as §2

B1: SM17-anti IL-33 2# bsBp: bispecific binding protein, SM17 IgG fused to anti-IL-33 scFv; HC SEQ ID NO: 64, LC SEQ ID NO: 33 (antibody)
heavy: MDLLHKNMKHLWFFLLLVAAPRWVLSQVQLVQSGAEVKKPGASVKVSCKASGYTFISYWMNWVRQAPGQGLEWMGRIDPYDSEIQYNQKFKDRVTMTRDTSISTAYMELSRLRSDDTAVYYCARSGGFDWFAYWGQGTLVTVSSASTKGPSVFPLAPCSRSTSESTAALGCLVKDYFPEPVTVSWNSGALTSGVHTFPAVLQSSGLYSLSSVVTVPSSSLGTKTYTCNVDHKPSNTKVDKRV[sequence of human IgG4 Fc with S228P (EU numbers) not given]GGGSGGGGSGGGGSEVQLVESGGNLEQPGGSLRLSCTASGFTFSRSAMNWVRRAPGKGLEWVSGISGSGGRTYYADSVKGRFTISRDNSKNTLYLQMNSLSAEDTAAYYCAKDSYTTSWYGGMDVWGHGTTVTVSSGGGGSGGGGSGGGGSGGGGSDIQMTQSPSSVSASVGDRVTITCRASQGIFSWLAWYQQKPGKAPKLLIYAASSLQSGVPSRFSGSGSGTDFTLTISSLQPEDFAIYYCQQANSVPITFGQGTRLEIK
light: DIQMTQSPSSLSASVGDRVTITCRASENINSNLAWYQQKPGKAPKLLLYDVTNLADGVPSRFSGSGSGTDYTLTISSLQPEDFATYYCQHFWGPPYTFGGGTKVEIKRTVAAPSVFIFPPSDEQLKSGTASVVCLLNNFYPREAKVQWKVDNALQSGNSQESVTEQDSKDSTYSLSSTLTLSKADYEKHKVYACEVTHQGLSSPVTKSFNRGEC
[1]
  Cell proliferation inhibition, Th2: +++
IL-33 [2]
  Intensity of specific antigen binding, IL-33 coated on ELISA strips: +++
Human PBMCs
  Intensity of specific cytokine inhibition, IFNγ: ++
IL-33 [3]
  Kdis: <1e-07 s⁻¹
  Ka: 37300 M⁻¹ s⁻¹
[4]
  Cell proliferation inhibition, ILC2: +++
IL-17RB
  Intensity of specific antigen binding, IL-17RB coated on ELISA strips: +++

B2: SM17-hST2: antibody-receptor fusion protein, SM17 fused with human ST2 extracellular domain; HC SEQ ID NO: 66, 74, LC SEQ ID NO: 33 (antibody)
heavy 1: MDLLHKNMKHLWFFLLLVAAPRWVLSQVQLVQSGAEVKKPGASVKVSCKASGYTFISYWMNWVRQAPGQGLEWMGRIDPYDSEIQYNQKFKDRVTMTRDTSISTAYMELSRLRSDDTAVYYCARSGGFDWFAYWGQGTLVTVSSASTKGPSVFPLAPCSRSTSESTAALGCLVKDYFPEPVTVSWNSGALTSGVHTFPAVLQSSGLYSLSSVVTVPSSSLGTKTYTCNVDHKPSNTKVDKRV[sequence of human IgG4 Fc with S228P (EU numbers) not given]GGGSGGGGSGGGGSKFSKQSWGLENEALIVRCPRQGKPSYTVDWYYSQTNKSIPTQERNRVFASGQLLKFLPAAVADSGIYTCIVRSPTFNRTGYANVTIYKKQSDCNVPDYLMYSTVSGSEKNSKIYCPTIDLYNWTAPLEWFKNCQALQGSRYRAHKSFLVIDNVMTEDAGDYTCKFIHNENGANYSVTATRSFTVKDEQGFSLFPVIGAPAQNEIKEVEIGKNANLTCSACFGKGTQFLAAVLWQLNGTKITDFGEPRIQQEEGQNQSFSNGLACLDMVLRIADVKEEDLLLQYDCLALNLHGLRRHTVRLSRKNPSKECF
heavy 2: MDLLHKNMKHLWFFLLLVAAPRWVLSQVQLVQSGAEVKKPGASVKVSCKASGYTFISYWMNWVRQAPGQGLEWMGRIDPYDSEIQYNQKFKDRVTMTRDTSISTAYMELSRLRSDDTAVYYCARSGGFDWFAYWGQGTLVTVSSASTKGPSVFPLAPCSRSTSESTAALGCLVKDYFPEPVTVSWNSGALTSGVHTFPAVLQSSGLYSLSSVVTVPSSSLGTKTYTCNVDHKPSNTKVDKRV[sequence of human IgG4 Fc with S228P (EU numbers) not given]GGGSGGGGSGGGGSKFSKQSWGLENEALIVRCPRQGKPSYTVDWYYSQTNKSIPTQERNRVFASGQLLKFLPAAVADSGIYTCIVRSPTFNRTGYANVTIYKKQSDCNVPDYLMYSTVSGSEKNSKIYCPTIDLYNWTAPLEWFKNCQALQGSRYRAHKSFLVIDNVMTEDAGDYTCKFIHNENGANYSVTATRSFTVKDEQGFSLFPVIGAPAQNEIKEVEIGKNANLTCSACFGKGTQFLAAVLWQLNGTKITDFGEPRIQQEEGQNQSFSNGLACLDMVLRIADVKEEDLLLQYDCLALNLHGLRRHTVRLSRKNPIDHHS
light: B1 light
IL-33 [2]
  Intensity of specific antigen binding, IL-33 coated on ELISA strips: +++
TSLP
  Intensity of specific antigen binding, TSLP coated on ELISA strips: −
IL-33 [3]
  Kdis: 0.000226 s⁻¹
  Ka: 556000 M⁻¹ s⁻¹
IL-17RB
  Intensity of specific antigen binding, IL-17RB coated on ELISA strips: +++
